This is an account of results in paper PMC12820563, “FoxP3 forms a head-to-head dimer in vivo and stabilizes its multimerization on adjacent microsatellites”.

Some of the results follow.

This experiment has as its target T1, MBP-FoxP1dN (Mus musculus, UniProt P58462 326-579).
T1 sequence: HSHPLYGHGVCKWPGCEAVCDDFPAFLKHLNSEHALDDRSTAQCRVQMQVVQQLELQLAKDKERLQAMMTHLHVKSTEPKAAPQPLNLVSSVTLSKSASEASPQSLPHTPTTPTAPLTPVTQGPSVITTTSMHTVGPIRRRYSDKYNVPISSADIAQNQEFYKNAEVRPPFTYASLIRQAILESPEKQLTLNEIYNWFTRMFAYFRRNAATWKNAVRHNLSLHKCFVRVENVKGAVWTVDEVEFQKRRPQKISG
In words: PD-seq (MBP pull-down with sequencing); 20 mM Tris-HCl pH 7.5, 100 mM NaCl, 1.5 mM MgCl2, 0.4 uM protein, 0.1 uM dsDNA library, 30 min, room temperature, amylose pull-down; high values mean tight binding. Conditions: protein: recombinant; tags: His6-MBP; chain copies: 2; dsDNA, one strand shown. Summed up:
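His6-MBP-tagged mouse FoxP3 or FoxP1 fragment lacking the N-terminus, expressed in E. coli, was mixed at 0.4 µM with 0.1 µM Klenow-filled double-stranded degenerate DNA library. Incubation was 30 min at room temperature in Tris pH 7.5 buffer with NaCl and MgCl2. Complexes were caught on amylose resin and washed three times; DNA was released with proteinase K, PCR-barcoded and Illumina-sequenced. Binding is reads-per-million enrichment, pull-down over input, with replicates pooled.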
For the sequence “GATGATTGTTCTCCCAGCTGATGAATTCTTAGATTCGAGTAAACAAATTTTCCTAATCTTTCTGTTCAAGCGCCATCTAC”, the binding signal is 0.89 RPM ratio (pull-down/input).
As to “GATGATTGTTCTCCCAGCTGATGAATTTGCCCGCTCGAGTAAACAAATTTTCCTAATCTTTCTGTTCAAGCGCCATCTAC”, the binding signal is 0.766 RPM ratio (pull-down/input).
For “GATGATTGTTCTCCCAGCTGATGAATTCAGACTTTCGAGTAAACAAATTTTCCTAATCTTTCTGTTCAAGCGCCATCTAC” the value was 0.904 RPM ratio (pull-down/input); for “GATGATTGTTCTCCCAGCTGATGAATTACGACTCTCGAGTAAACAAATTTTCCTAATCTTTCTGTTCAAGCGCCATCTAC”, 0.981 RPM ratio (pull-down/input); for “GATGATTGTTCTCCCAGCTGATGAATTGGGAATTTCGAGTAAACAAATTTTCCTAATCTTTCTGTTCAAGCGCCATCTAC”, 0.853 RPM ratio (pull-down/input).
For “GATGATTGTTCTCCCAGCTGATGAATTCTTCAAATCGAGTAAACAAATTTTCCTAATCTTTCTGTTCAAGCGCCATCTAC”, the binding signal is 1.01 RPM ratio (pull-down/input).
For “GATGATTGTTCTCCCAGCTGATGAATTGTTTCCTTCGAGTAAACAAATTTTCCTAATCTTTCTGTTCAAGCGCCATCTAC” the value was 1.44 RPM ratio (pull-down/input); for “GATGATTGTTCTCCCAGCTGATGAATTCGGACACTCGAGTAAACAAATTTTCCTAATCTTTCTGTTCAAGCGCCATCTAC”, 0.831 RPM ratio (pull-down/input); for “GATGATTGTTCTCCCAGCTGATGAATTATAAAGCTCGAGTAAACAAATTTTCCTAATCTTTCTGTTCAAGCGCCATCTAC”, 0.937 RPM ratio (pull-down/input).
Take “GATGATTGTTCTCCCAGCTGATGAATTGACGCCGTCGAGTAAACAAATTTTCCTAATCTTTCTGTTCAAGCGCCATCTAC”: the binding signal was 1.11 RPM ratio (pull-down/input).
Regarding “GATGATTGTTCTCCCAGCTGATGAATTCGGCCCTTCGAGTAAACAAATTTTCCTAATCTTTCTGTTCAAGCGCCATCTAC”, the binding signal was 0.808 RPM ratio (pull-down/input).
Take “GATGATTGTTCTCCCAGCTGATGAATTCACTACGTCGAGTAAACAAATTTTCCTAATCTTTCTGTTCAAGCGCCATCTAC”: the binding signal was 0.91 RPM ratio (pull-down/input).
With “GATGATTGTTCTCCCAGCTGATGAATTATACGTCTCGAGTAAACAAATTTTCCTAATCTTTCTGTTCAAGCGCCATCTAC”, the binding signal is 0.997 RPM ratio (pull-down/input).
For “GATGATTGTTCTCCCAGCTGATGAATTGCAGTTTTCGAGTAAACAAATTTTCCTAATCTTTCTGTTCAAGCGCCATCTAC” the value was 1.52 RPM ratio (pull-down/input).
In the case of “GATGATTGTTCTCCCAGCTGATGAATTAGCACGATCGAGTAAACAAATTTTCCTAATCTTTCTGTTCAAGCGCCATCTAC”, the binding signal was 0.875 RPM ratio (pull-down/input).
Turning to “GATGATTGTTCTCCCAGCTGATGAATTGACGTACTCGAGTAAACAAATTTTCCTAATCTTTCTGTTCAAGCGCCATCTAC”, the binding signal was 1.09 RPM ratio (pull-down/input).
For “GATGATTGTTCTCCCAGCTGATGAATTTTATTTCTCGAGTAAACAAATTTTCCTAATCTTTCTGTTCAAGCGCCATCTAC”, the binding signal was 1.16 RPM ratio (pull-down/input).
With “GATGATTGTTCTCCCAGCTGATGAATTTAAGCCGTCGAGTAAACAAATTTTCCTAATCTTTCTGTTCAAGCGCCATCTAC”, the binding signal was 0.861 RPM ratio (pull-down/input).
Turning to “GATGATTGTTCTCCCAGCTGATGAATTTGCGTAATCGAGTAAACAAATTTTCCTAATCTTTCTGTTCAAGCGCCATCTAC”, the binding signal was 1.51 RPM ratio (pull-down/input).
As to “GATGATTGTTCTCCCAGCTGATGAATTGCCGCCCTCGAGTAAACAAATTTTCCTAATCTTTCTGTTCAAGCGCCATCTAC”, the binding signal is 0.912 RPM ratio (pull-down/input).
For “GATGATTGTTCTCCCAGCTGATGAATTTTATTGTTCGAGTAAACAAATTTTCCTAATCTTTCTGTTCAAGCGCCATCTAC”, the binding signal is 2.31 RPM ratio (pull-down/input).
For “GATGATTGTTCTCCCAGCTGATGAATTGGTCCCCTCGAGTAAACAAATTTTCCTAATCTTTCTGTTCAAGCGCCATCTAC”, the binding signal is 0.821 RPM ratio (pull-down/input).
On to “GATGATTGTTCTCCCAGCTGATGAATTTGCTAACTCGAGTAAACAAATTTTCCTAATCTTTCTGTTCAAGCGCCATCTAC”, for which the binding signal is 1.02 RPM ratio (pull-down/input).
“GATGATTGTTCTCCCAGCTGATGAATTGCCCTATTCGAGTAAACAAATTTTCCTAATCTTTCTGTTCAAGCGCCATCTAC”: the binding signal was 0.991 RPM ratio (pull-down/input).
Turning to “GATGATTGTTCTCCCAGCTGATGAATTACTTCCCTCGAGTAAACAAATTTTCCTAATCTTTCTGTTCAAGCGCCATCTAC”, the binding signal was 0.971 RPM ratio (pull-down/input).
“GATGATTGTTCTCCCAGCTGATGAATTAGACCATTCGAGTAAACAAATTTTCCTAATCTTTCTGTTCAAGCGCCATCTAC”: the binding signal was 0.914 RPM ratio (pull-down/input).
For the sequence “GATGATTGTTCTCCCAGCTGATGAATTGAATTATTCGAGTAAACAAATTTTCCTAATCTTTCTGTTCAAGCGCCATCTAC”, the binding signal was 1.03 RPM ratio (pull-down/input).
As to “GATGATTGTTCTCCCAGCTGATGAATTGGTAGCATCGAGTAAACAAATTTTCCTAATCTTTCTGTTCAAGCGCCATCTAC”, the binding signal was 1.17 RPM ratio (pull-down/input).
As to “GATGATTGTTCTCCCAGCTGATGAATTGAGCGAATCGAGTAAACAAATTTTCCTAATCTTTCTGTTCAAGCGCCATCTAC”, the binding signal was 0.866 RPM ratio (pull-down/input).
With “GATGATTGTTCTCCCAGCTGATGAATTAAATGGATCGAGTAAACAAATTTTCCTAATCTTTCTGTTCAAGCGCCATCTAC”, the binding signal is 0.969 RPM ratio (pull-down/input).
For “GATGATTGTTCTCCCAGCTGATGAATTTGAACAATCGAGTAAACAAATTTTCCTAATCTTTCTGTTCAAGCGCCATCTAC”, the binding signal was 1.3 RPM ratio (pull-down/input).
